The source of these data is the RNAGym collection of RNA variant scans (doi:10.1073/pnas.2313332121).

Variants at the floor of the assay are shown more often than the library holds them. Where only a bound is given, the exact number is not on record here.

B1: TPR 5TU (parent)
chain: GGAUCUUCUCGAUCUAACAAAAAAGACAAAUCUGCCACAAAGCUUGAGAGCAUCUUCGGAUGCAGAGGCGGCAGCCUUCGGUGGCGCGAUAGCGCCAACGUUCUCAACUAUGACACGCAAAACGCGUGCUCCGUUGAAUGGAGUUUAUCAUG

This data set covers variants of B1. Nature of the data set: polymerase ribozyme fitness, log enrichment relative to wild type (log ratio); higher = more active; in vitro selection for triplet polymerase activity. The method, boiled down: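 Mutant libraries of both subunits of a heterodimeric triplet polymerase ribozyme were PCR-built, transcribed, and selected once in triplicate, with frozen incubation at −7 °C and capture of gel-excised extended constructs on streptavidin beads before RT-PCR. Illumina sequencing of input and output libraries was filtered to genotypes with ≥10 input reads and ≥1 read per output. Fitness is the logarithm of genotype enrichment over wild-type enrichment, using inverse-variance-weighted replicate averages. The logarithm is base 2.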
Turning to GGAUCUUCUCGAUCUAACAAAAAAGACAAAUCUGCCACAAAGCUUGAGAGCAUCUUCGGAUCCAGAGGCGGCAGCCUUCGGUGGCGCGAUAGCGCCAACGUUCUGAACUAUGACACGCAAAACGCGUGCUCCGUUGAAUGGAGUUUAUCAUG, the “polymerase ribozyme fitness (log ratio)” value was no more than -4.2.

For the variant GGAUCUUCUCGAUCUAACAAAAAAGACAAAUCUGCCACAAAGCUUGAGAGCAUCUUCGGAUACAGAGGCGGCCGGCUUCGGUGGCGUGAUAGCGCCAACGUUGUCAACUAUGACACGCAAAACGCGUGCUCGGUUGAAUGGAGUGAAUCAUG, the “polymerase ribozyme fitness (log ratio)” value was no more than -4.2. Turning to GGAUCUUCUCGAUCUAACAAAAAAGACAAAUCUGCCACAAAGCUUGAGAGCAUCUUCGGAUACAGAGGCGGCAGCCUUCGGUGACGCGAUAGCGCUAACGUUCUCAACUAUGACGCGCAAAACGCGUGCUCCGUUGAAUGGAGUUUAUCAUG, the “polymerase ribozyme fitness (log ratio)” value is no more than -4.2. With GGAUCUUCUCGAUCUAACAAAAAAGACAAAUCUGCCACAAAGCUUGAGAGCAUCUUCGGAUCCAGAGGCGGAAGCCUUCGGUGGCGCGAUGGCGCCAGCGUUCUCAACUAUGACACGCAAAAUGCGUGCUCCGUUGAAUGGAGUUUAUCAUG, the “polymerase ribozyme fitness (log ratio)” value was no more than -4.2.

Regarding GGAUCUUCUCGAUCUAACAAAAAAGACAAAUCUGCCACAAAGCUUGAGAGCAUCUUCGGAUCCAGACGCGGCAGCCUUCGAUGGCGCGAUAGCGCCAACGUUCUCAACUAUGACACGCAAAACGCGUGCUCCGUUGAAUGGAAUUUAUCAUG, the “polymerase ribozyme fitness (log ratio)” value was no more than -4.2. With GGAUCUUCUCGAUCUAACAAAAAAGACAAAUCUGCCACAAAGCUUGAGAGCAUCUUCGGAUCCAGAGACGGCAGCCUUCGGUCGCGCGAUAGCGCCAACGUUCUCAACUAUGACACGCAAAACGCAUGCUCCGUUGAAUGGAGUUUGUCAUG the figure was no more than -4.2. On to GGAUCUUCUCGAUCUAACAAAAAAGACAAAUCUGCCACAAAGCUUGAGAGCAUCUUCGGAUCCAGAGGCGGCAGCCUUCGGUGGCGCGAUAGCGCCAACGUUCUCAGCUAUGACACGUAAAACGCGUGCUCCGUUGAAUGGAGUUUAUCAUG, for which the “polymerase ribozyme fitness (log ratio)” value was no more than -4.2. In the case of GGAUCUUCUCGAUCUAACAAAAAAGACAAAUCUGCCACAAAGCUUGAGAGCAUCUUCGGAUCCAGAGGCGGCAGCCUUCGGUGGCGCGAUAGCGCCAACGUUCUCCACUAUGACACGCAAAACGCGUGCUCCGUUGAAUGGAUUUUAUCAUG, the “polymerase ribozyme fitness (log ratio)” value was no more than -4.2.

In the case of GGAUCUUCUCGAUCUAACAAAAAAGACAAAUCUGCCACAAAGCUUGAGAGCAUCUUCGGAUCCAGAGUCGGCAGCCUUCGGUGGCGCGAUAGCGCCAACGUUCUCAACUAUGACACGCAUAACGCGUGCUCCGUUGAAUGUAGUUUAGCAUG, the “polymerase ribozyme fitness (log ratio)” value was no more than -4.2. With GGAUCUUCUCGAUCUAACAAAAAAGACAAAUCUGCCACAAAGCUUGAGAGCAUCUUCGGAUACAGAGGCGGCAGCAUUAGGUGGCGCGAUAGCGCAAACGUUCUCAACUAUGACACGCAAAACGCGUGCUCCGUUGAAUGGAGUUUAUCAUG, the “polymerase ribozyme fitness (log ratio)” value is no more than -4.2.

Regarding GGAUCUUCUCGAUCUAACAAAAAAGACAAAUCUGCCACAAAGCUUGAGAGCAUCUUCGGAUCCAGAGGCGGCAGCUUUCGGUGGCGCGAUAGCGCCAACGUUCUCAACUAUGACACGCAAAACGCGUGCUCCGUUGAAGGGAGUUUAUCAUG, the “polymerase ribozyme fitness (log ratio)” value is -3.09. In the case of GGAUCUUCUCGAUCUAACAAAAAAGACAAAUCUGCCACAAAGCUUGAGAGCAUCUUCGGAUCCAGAGGCGGCAGCCUUCGGUGGAGCGAUAGCGCCAACGUUCUCAACUAUGACACGCAAAACGCGUGCUCCGUUGAAUGGAGUUUAUCAUG, the “polymerase ribozyme fitness (log ratio)” value was -3.75. GGAUCUUCUCGAUCUAACAAAAAAGACAAAUCUGCCACAAAGCUUGAGAGCAUCUUCGGAUCCAGAGUCGGCAGCCUUCGGUGGCGCGGUAGCGCCAACGUUCUCAAAUAUGUCACGCAAAACGCGUGCUCCGUUGAAUGGAGUUUAUCAUG: the “polymerase ribozyme fitness (log ratio)” value was no more than -4.2. GGAUCUUCUCGAUCUAACAAAAAAGACAAAUCUGCCACAAAGCUUGAGAGCAUCUUCGGAUCCAGAGGCGGCAGCCUUCAGUGGUGCGAUAGCGCCAACGUUCGCAACUAUGACACGCAAAACGCGUGCUCCGUUGAAAGGACUUUAUCAUG: the “polymerase ribozyme fitness (log ratio)” value was no more than -4.2. Take GGAUCUUCUCGAUCUAACAAAAAAGACAAAUCUGCCACAAAGCUUGAGAGCAUCUUCGGAUACUGAGGCGGCAGCCUUCGGUGGCGCGAUAGCGCCAACGUUCUCAACUAUGACACGCAAAACGCGUGUUCCGUUCAAUGGAGUUUAUCAUG: the “polymerase ribozyme fitness (log ratio)” value is no more than -4.2. On to GGAUCUUCUCGAUCUAACAAAAAAGACAAAUCUGCCACAAAGCUUGAGAGCAUCUUCGGAUACAGAGGCGGCAGCCUUCGUUGGCGCGAUAGCGACAACGUUCUCAACUAUGACACGCAAAACGCUUGCUCCGUUGAAUGGAGUUUAUCAUG, for which the “polymerase ribozyme fitness (log ratio)” value worked out at 0.493.

For GGAUCUUCUCGAUCUAACAAAAAAGACAAAUCUGCCACAAAGCUUGAGAGCAUCUUCGGAUACAGAGGCGGCAGUCUUCGGUGGCGCGAUAGCGCCAACGUUCUCAACUAUGACACGCAAAACGCGUGCUCCGUUGAAUGGAGUUUAUCAUG, the “polymerase ribozyme fitness (log ratio)” value was -0.822. For the variant GGAUCUUCUCGAUCUAACAAAAAAGACAAAUCUGCCACAAAGCUUGAGAGCAUCUUCGGAUACAGAGGCGGCAGCCUUCGGUGGCGUGAUAGCGCCAACGUUCUCAACUAUGACACGCAGAACGCGUGCUCCGUUGAAUGGCGUUUAUCAUG, the “polymerase ribozyme fitness (log ratio)” value was -3.11. Regarding GGAUCUUCUCGAUCUAACAAAAAAGACAAAUCUGCCACAAAGCUUGAGAGCAUCUUCGGAUACAGAGGAGGCAGCCUUCGGUGGCGCGAUAGCGCCAACGUUCUCAACUAUGACACGCAAAACGCGUGCUCCGUUGAAUGGAGUUUAUCAUG, the “polymerase ribozyme fitness (log ratio)” value is no more than -4.2.
